Over roughly 13,000 compounds, “IFI” has its median near 4; the highest 2% begin near 17. The list shows a part of the results.
Assay: GSK_TCMDC: Inhibition Frequency Index (IFI). The number of non-kinase HTS assays where a compound showed > 50 % inhibition, expressed as a percentage of the number of such assays in which the compound was tested (-0 is zero)
Format: functional

Row | Compound | IFI [%]
1 | O=C(/C=C/c1ccc(Cl)cc1)NCCCCCN1CCC(c2c[nH]c3ccccc23)CC1 | 7.19
2 | O=C(NCC1CCC(C(=O)O)CC1)c1ccc(/C=C/C(=O)N2CCc3ccccc3C2c2ccc3c(c2)OCO3)cc1 (configuration not stated) | 1.55
3 | CNC(=O)COC(=O)c1c2c(nc3ccccc13)C(=Cc1ccc3c(c1)OCO3)CCC2 | 9.72
4 | NC(=O)c1cccc(C(=O)Nc2ccc(-c3cccc(-c4nc5cc(F)ccc5[nH]4)c3)cc2)c1 | 1.74
5 | CC(C)C[C@H](NC(=O)c1cc2ccccc2s1)C(=O)N[C@H]1CCN(Cc2ccc(I)c(OCCN3CCCC3)c2)C1 | 13.3
6 | COc1ccc(CNC(=O)c2cnc3c(O)cccc3c2Nc2cccc(NC(=O)c3ccc(Cl)c([N+](=O)[O-])c3)c2)cc1 | 6.25
7 | CC(C)(C)c1nn(-c2ccc(Cl)cc2)c2[nH]c(=O)c(CNCc3cccs3)cc12 | 8.33
8 | COc1ccc(N2CCN(CCCCNC(=O)c3ccc(NC(=O)c4ccc(OC(F)(F)F)cc4)cc3)CC2)c(OC)c1 | 6.14
9 | CCOc1ccc(S(=O)(=O)N(C)c2ccc(OCC(=O)Nc3nccs3)cc2)cc1 | 2.1
10 | COc1cc2c(C3CCN(CC4CCC(NC(=O)/C=C/c5ccc(Cl)c(Cl)c5)CC4)CC3)c[nH]c2cn1 (configuration not stated) | 1.54
11 | C[C@H](Nc1c(Nc2ccc3[nH]ccc3c2)c(=O)c1=O)C1CCCCC1 | 5.22
12 | Cc1cccc2nc(-c3cccc(-c4ccc(NC(=O)Nc5ccc(Cl)cc5)cc4)c3)[nH]c12 | 5
13 | CN1CCCN(Cc2cccc(-c3cccc(NC(=O)c4cccc(Cl)c4)c3)c2)CC1 | 3.85
14 | CC(NC(=O)c1ccc(O)c(-c2ccc(Cl)c(Cl)c2)c1)C(=O)NC1CCCCC1 (configuration not stated) | 4.41
15 | Cc1nnc2c(NC(=O)NC3CCCC3)cc3cc(-c4ccc(CN(C)C)cc4)ccc3n12 | 10.8
16 | CCCCCOc1ccc(C(O)C(CN2CCCCC2)c2ccccc2)cc1 (configuration not stated) | 2.27
17 | COc1ccc(Cc2nc(/N=C(\N)Nc3ccccc3)ccc2OC)cc1 | 22.6
18 | c1ccc(Oc2ccc(Nc3ccnc4cc(-c5csc(CN6CCCCC6)n5)ccc34)cc2)nc1 | 6.72
19 | O=C(Nc1ccc2oc(-c3ccc(Cl)cc3Cl)nc2c1)c1ccc([N+](=O)[O-])o1 | 2.05

Row | Compound | IFI [%]
20 | Nc1nc(N)c2cc(C(F)(F)F)ccc2n1 | 1.65
21 | COc1ccc(CCNCc2cc3c(C(C)(C)C)nn(-c4ccc(Cl)cc4)c3[nH]c2=O)cc1OC | 10.3
22 | c1ccc2c(NCCc3c[nH]cn3)c3ccccc3nc2c1 | 7.62
23 | Cc1cccc(C(=O)Nc2ccnc(N(C)CCCN(C)Cc3cccc(O)c3)c2)c1 | 5.41
24 | Cc1noc(C)c1-c1cccc(CNCc2ccc(-c3cccc(-c4nc5cc(F)ccc5[nH]4)c3)cc2)c1 | 1.94
25 | CN(C)CCOc1ccc(-c2cc(-c3ccc(Cl)c(O)c3)c(-c3ccncc3)[nH]2)cc1 | 4.03
26 | CC(=O)Nc1ccc(OCCCCN(Cc2ccccc2OC(F)(F)F)c2ccc(C(F)(F)F)c(C#N)c2)c(Cl)c1 | 0
27 | COc1ccc(CNCc2ccc(F)cc2)cc1-c1ccc(S(=O)(=O)NCCN2CCCC2)c(C)c1 | 14.7
28 | CCOC(=O)C(NC(=O)Cc1ccccc1)C(C)C (configuration not stated) | 1.52
29 | O=C(NCCc1cccc(Cl)c1Cl)c1cnc(N2CCN(c3ccncc3)CC2)c(Cl)c1 | 20
30 | COc1ccc(Oc2ccc(-c3c(C)[nH]c(C)c(Cl)c3=O)cc2)cc1 | 2.7
31 | COc1cc2nc(NCCc3ccccc3)nc(NCc3cnn(C)c3C)c2cc1OC | 3.08
32 | O=C(/C=C/c1ccc(Cl)c(Cl)c1)NCCCCCN1CCC(NC(=O)Nc2ccc(Cl)cc2Cl)CC1 | 9.33
33 | COc1cccc(C(=O)C2CC2CN(C)CC(O)c2cc(C)c(OC)cc2C)c1 (configuration not stated) | 0.88
34 | CC(=O)NCCNc1nccc(N2CCc3ncnc(Nc4ccc(OCc5ccccn5)c(Cl)c4)c3C2)n1 | 2.21
35 | Oc1ccccc1CNCC12CC3CC(CC(C3)C1)C2 | 0.72
36 | O=C(/C=C/c1ccc(Cl)c(Cl)c1)NCCCCCN1CC[C@H](NC(=O)/C=C/c2ccccc2)C1 | 5.3
37 | COc1ccc(NC(=O)c2ccc(C=Cc3ccc(C(F)(F)F)cc3)cc2)cc1N1CCN(C)CC1 | 9.43
38 | N=C(N)Nc1nc(-c2cccc(NC(=O)NCCc3c[nH]c4ccc(OCc5ccccc5)cc34)c2)cs1 | 5.38

Row | Compound | IFI [%]
39 | Cc1cc(-c2cnc(N)c(-c3ccc(N4CCN(C)CC4)cc3)c2)cc(C)c1O | 3.45
40 | CN(CCCN(C)c1cc(NC(=O)c2cccc(F)c2)ccn1)Cc1cccc(O)c1 | -0
41 | CCCCc1ccc(-c2c(N)nc(N)nc2CC)cc1 | 3.65
42 | O=C(Nc1ccc(-c2csc(-c3nc4ccccc4[nH]3)c2)cc1)Nc1ccc(F)c(F)c1F | 1.96
43 | CC[C@H](C)[C@H](NC(=O)[C@H](CC1CCCCC1)[C@H](CC)N(O)C=O)C(=O)Nc1ccccn1 | 2.94
44 | Cc1nc(N)nc(N)c1OCCCOc1ccccc1Br | 3.03
45 | CN(C)c1ccc(-c2ccc(C(=O)NC3CCN(Cc4ccccc4)CC3)s2)cc1 | 5.45
46 | CCCC(=O)Nc1ccc(Cl)c(NC(=O)COc2cc(C)ccc2C(C)C)c1 | 1.39
47 | O=C(Nc1ccc(OC(F)(F)F)cc1)NC1CCN(c2ccnc3ccccc23)CC1 | 10.4
48 | Cc1[nH]c2ccccc2c1C(=O)CSc1nn(-c2ccccc2)c(=S)s1 | 0
49 | CC(C)c1sc(N2CCN(C)CC2)nc1C(=O)NCCc1ccc(Cl)c(Cl)c1 | -0
50 | COc1cc(C=NNc2cc(C)nc3c(OC)cccc23)cc(OC)c1OC | 2.22
51 | CC(C)(C)Nc1cc(C(=O)N[C@@H](Cc2ccccc2)[C@H](O)CNC2CCOCC2)cc(N2CCCCS2(=O)=O)c1 | 0
52 | Cc1cc(NC(=O)c2cc(Br)ccc2Cl)n(-c2nc(C)c(C)c(=O)[nH]2)n1 | 9.8
53 | COc1ccccc1NC(=O)Nc1ccc(-c2cccc(-c3nc4ccccc4[nH]3)c2)cc1 | 4
54 | O=C1C2C3SC(c4c3ccc3ccccc43)C2C(=O)N1c1ccccc1 (configuration not stated) | 1.52
55 | Cc1cc(CNC(=O)c2ccc(-c3ccc(-c4nc5cc(C(F)(F)F)ccc5[nH]4)s3)cc2)on1 | 0.95
56 | CCCCCCNC(=N)c1ccc(OCCCCCOc2ccc(C(=N)NCCCCCC)cc2)cc1 | 12.3
57 | CCCn1cnc2cc(C(=O)Nc3ccc(-c4cccc(CN(C)C)c4)cc3)ccc2c1=O | 3.81

Source: ChEMBL document CHEMBL1157539, “Thousands of chemical starting points for antimalarial lead identification” (Nature, 2010)
